Values joined by “and” are separate entries in the source; they are usually repeats but may differ in a detail not shown here. Equal entries are not always repeated.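 Where inhibition never reached the appropriate level, the endpoint shown equals the highest concentration tested. Otherwise, values were interpolated linearly from a five-concentration, 48-hour dose response in 96-well plates. GI50 = concentration required for 50% inhibition of growth. Definition used: TGI = concentration required for complete inhibition of growth.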
Tested on: NCI-H322M lung
Assay: NCI tumour cell line growth inhibition, 48 h

| SMILES | GI50 | TGI |
| --- | --- | --- |
| N#Cc1ccsc1NC(=O)COC(=O)c1cccc(S(=O)(=O)N2CCc3ccccc32)c1 | > 100 µM | > 100 µM |
| COc1cccc2c3ccccc3c3nc[nH]c3c12 | – | > 100 µM |
| C1COCCOCCOCCOCCOCCO1.[Cl][Sn]([Cl])([c]1ccccc1)[c]1ccccc1 | 15.7 µM | 29.1 µM |
| Cc1cc(C)n2c(-c3ccccc3)c(C)cc2n1 | – | > 100 µM |
| Cn1c(=O)c2ccc(-c3ccc(Br)cc3)nc2n(C)c1=O | – | > 100 µM |
| Cc1ccc2c(c1)C1C(CO2)C(c2ccccc2)=NN1c1ccccc1 (stereo not given) | – | > 100 µM |
| CSc1ccc2c(c1)N(CCC1CCCCN1C)c1ccccc1S2 (stereo not given) | 7.14 µM | 22.2 µM |
| Cc1[nH]c(C(=O)Nc2ccccc2OC2CCNCC2)c(Cl)c1Cl | 1.47 µM | 5.9 µM |
| COc1cc2nc(-c3ccc(Cl)cc3)cc(OCCCN3CCCC3)c2cc1OC | 3.36 µM | 17.9 µM |
| c1cc2nnc1SCCCSc1ccc(nn1)SCCCSc1ccc(nn1)SCCCS2 | – | > 100 µM |
| O=C(Nc1nc(C23CC4CC(CC(C4)C2)C3)cs1)c1cc2cc(Cl)ccc2oc1=O | – | > 100 µM |
| CCC(C)[C@H](NC(=O)NC(=O)NC(=O)CI)C(=O)OC (stereo not given in full) | > 100 µM | > 100 µM |
| Cc1cc2nc3ccc(=[N+](C)C)cc-3sc2cc1N | 5.13 µM and 4.39 µM | 19.6 µM and 48.9 µM and 16.7 µM |
| CCOC(=O)CSc1nnc(CSc2nc(-c3ccccc3)c(-c3ccccc3)[nH]2)n1-c1ccccc1 | – | > 100 µM |
| CSc1c(C(=O)Nc2ccc(C)cc2)c(N)n(N)c(=O)c1C#N | – | > 100 µM |
| Clc1nc(Cl)c2c3c(sc2n1)CCCC3 | > 100 µM | > 100 µM |
| COC(=O)c1ccc2c(c1)C(=O)c1c-2n(C)c(=O)c2cc(OC)c(OC)cc12 | > 50 µM | > 50 µM |
| C=C1CC[C@@H]2[C@](C)(COC(C)=O)[C@H](OC(C)=O)CC[C@@]2(C)[C@@H]1CC(Nc1ccc(S(=O)(=O)Nc2cc(C)on2)cc1)C1=CCOC1=O (stereo not given in full) | 4.68 µM | 16.1 µM |
| CN1C(=O)C(C(N)=O)C2CC1(C)Oc1ccccc12 (stereo not given) | – | > 100 µM |
| CCOC(=O)c1ccc2c(c1)nc(/C=C/c1ccc(Cl)cc1)n2-c1cc(C(C)(C)C)[nH]n1 | 3.68 µM | 81.1 µM |
| NCCCn1c2c(c3ccc([N+](=O)[O-])cc3c1=O)C(=O)c1cc(-c3ccccc3)ccc1-2 | 0.841 µM | 2.15 µM |
| CSc1ccc(OCC2OC2O)cc1 (stereo not given) | – | > 100 µM |
| Cc1cc2oc(-c3ccccc3)c(C)c(=O)c2c2c1OC(C)(C)S2 | – | > 100 µM |
| O=c1c2ccccc2nc2n1C(c1ccc([N+](=O)[O-])cc1)C2(c1ccccc1)c1ccccc1 (stereo not given) | – | > 100 µM |

| SMILES | GI50 | TGI |
| --- | --- | --- |
| O=C1C(Nc2ccc(Br)cc2)=C(I)C(=O)c2ncccc21 | 3.51 µM | 9.77 µM |
| O=c1c2c(c3ccccc3n1-c1ccccc1)NC(=S)NC2c1ccc(Cl)cc1 (stereo not given) | 4.1 µM | 73.6 µM |
| CCOc1ccc(/C(C=O)=C(\Cl)c2ccc(OC)c(OC)c2)cc1 | – | > 100 µM |
| NS(=O)(=O)c1ccc(NCc2cnc3ccccc3n2)cc1 | – | > 100 µM |
| CO[C@]12C=C/C(=C(/C(=O)OCc3cccnc3)C(=O)CCCCCCCC[C@@]3(OC)C=C/C(=C(/C(=O)OCc4cccnc4)C(=O)CCCCCCCC1)O3)O2 | 3.63 µM | 15.8 µM |
| COC(=O)NC(=Nc1ccc(Oc2ccccc2)cc1NC=O)NC(=O)OC | – | > 100 µM |
| O=c1cc(N2CCCC2)[nH]c(=O)n1-c1ccc(F)cc1 | – | > 100 µM |
| Cc1ccc(C2N=C(N)NC3=C2CCOc2c3ccc3ccccc23)cc1 (stereo not given) | – | > 92.2 µM |
| CC(=O)Oc1c2c(c(CC=C(C)C)c3c1C(=O)C1=C[C@@H]4CC5C(C)(C)OC(C/C=C(/C)C(=O)O)(C4=O)[C@@]15O3)OC(C)(CCC=C(C)C)C=C2 (stereo not given in full) | – | 1.64 µM |
| COc1cc(C(=O)C2C(=O)c3ccccc3C2C2(O)c3ccccc3CC2C(O)c2cc(OC)c(OC)c(OC)c2)cc(OC)c1OC (stereo not given) | – | > 100 µM |
| COC(=O)C(C(=O)C(=O)Nc1ccccc1C#N)c1nc2ccc([N+](=O)[O-])cc2[nH]c1=O (stereo not given) | – | > 100 µM |
| CCCCCCCNC(P(=O)(O)O)P(=O)(O)O | – | > 100 µM |
| O=S1(=O)NC2CCC3NS(=O)(=O)NC4CCC(N1)N4S(=O)(=O)N23 (stereo not given) | – | > 100 µM |
| O=C(Nc1c(C(=O)NC2CCCCC2)[nH]c(=O)[nH]c1=O)c1ccc(Cl)cc1 | – | > 100 µM |
| COc1cc(CNC2=NCCC2)cc(OC)c1OC | – | > 100 µM |
| O=C(c1ccco1)c1c(C(F)(F)F)nc2ccc(C(F)(F)F)cc2[n+]1[O-] | 44.5 µM | > 100 µM |
| COc1ccc2c(c1)C1OCCNC1CC2 (stereo not given) | – | > 100 µM |
| C=CCc1cc(C=C(C#N)C#N)cc(OC)c1O | – | > 100 µM |
| COC(=O)C1=CC2CC1C(S(=O)(=O)c1ccccc1)C2S(=O)(=O)c1ccccc1 (stereo not given) | – | > 100 µM |
| COc1ccc(-c2nn(-c3cccc(NC(=O)Nc4ccccc4)c3)cc2-c2ccncc2)cc1Cl | 3 µM | 9.64 µM |
| Cc1cc(=O)n2c3c(c4c(cc13)c(CO)cc(=O)n4C)OC2 | – | 59.8 µM |
| CC1CCCCN1CC(=O)c1ccc2c(c1)Sc1ccccc1O2 (stereo not given) | – | 28 µM |
| Cc1ccc(NC(=O)CC/C(CC(=O)C(C)(C)C)=N/NC(=O)C[N+](C)(C)C)cc1C | – | > 100 µM |
| O=C1C=CC(=Nc2ccccc2)c2ccccc21 | – | 19.6 µM |

From PubChem BioAssay (NCI)
